About 540 (0.36%) of roughly 150,000 compounds showed an effect of 50% or more. The list shows a part of the results.

The assay concerns Plasmodium falciparum. Nature of the assay: Primary screen in NF54 nanoGlo assay, in single point, at 2uM, 72h; a lower Z score goes with more inhibition. The class given is functional, Erythrocyte. To be noted: timepoint 72 hour.
As to `Cn1cc(Cl)c(CNC(=O)[C@@H]2Cc3ccc(F)cc32)n1`, the “% Inhibition” value was -14% and the Z score came out at 1.25.

Consider `COCCc1nsc(N(C)Cc2ccc(O)cc2)n1`, for which the “% Inhibition” value is listed as -10% and the Z score is 1.15.

Regarding `O=C(NC1CCCCC1)[C@@H]1CCCc2ccccc21`, the “% Inhibition” value is on record as -16% and the Z score was found to be 1.41.

Take `COCCN1C(=O)CC(CC(=O)N(C)C(C)c2nc(C)cs2)(c2ccccc2OC)C1=O` (centres undefined): the “% Inhibition” value was 1% and the Z score is -0.22.

As for `COc1ccc(-c2cc(-c3cc(C#N)n(C)c3C)c(C#N)c(N)n2)cn1`, the “% Inhibition” value is -21% and the Z score stood at 2.63.

As for `Cc1ccc(CC(=O)NOCC(=O)N(C(C)C)C(C)C)cc1`, the “% Inhibition” value is recorded as -9% and the Z score is reported as 1.17.

Regarding `O=C([C@H]1C[C@@H]1C(F)F)N1CCn2ccnc21`, the “% Inhibition” value is on record as 2% and the Z score is given as -0.17.

Take `Cc1ccc(C(=O)N2CCn3cccc3[C@H]2c2ccccn2)cc1OCCN`: the “% Inhibition” value worked out at 4% and the Z score is recorded as -0.6.

`CN(CCC(=O)Nc1ccnn1C1CCCC1)Cc1ccccc1OC(F)(F)F`: the “% Inhibition” value stood at 0% and the Z score is -0.03.

As for `O=C(NCc1nccs1)c1cc(F)c[nH]1`, the “% Inhibition” value was -9% and the Z score came out at 1.73.

For `CNC(=O)N1CCC(OC(C)=O)CC1`, the “% Inhibition” value is on record as -10% and the Z score turned out to be 1.77.

Turning to `Cc1ccc(OCCc2nnc(NC(=O)[C@@H]3C=CCN3)s2)cc1`, the “% Inhibition” value is -10% and the Z score is 1.5.

Consider `C[C@H]1CCCN(C(=O)CCS(=O)(=O)C2CCCC2)C1`, for which the “% Inhibition” value was -9% and the Z score is recorded as 0.77.

Take `CCOCC(=O)N1CCC[C@@]2(CCC(=O)N(Cc3cnc(C)cn3)C2)C1`: the “% Inhibition” value is reported as -9% and the Z score came to 1.21.

On to `O=c1c2ccccc2sn1Cc1cc(=O)n2ccsc2n1`, for which the “% Inhibition” value is listed as -1% and the Z score is on record as 0.15.

On to `C[C@H]1C(=O)N(C)CCN1Cc1ccc2ccccc2n1`, for which the “% Inhibition” value was found to be 4% and the Z score is -0.62.

For `Cc1nn(C(C)C)c(C)c1S(=O)(=O)Nc1nc(C(C)C)nn1C`, the “% Inhibition” value stood at 0% and the Z score is listed as 0.04.

Take `Cc1onc(-c2cccs2)c1C(=O)N1CCn2ncnc2C1`: the “% Inhibition” value is reported as -1% and the Z score was 0.24.

Turning to `FC(F)(F)c1ccnc(Oc2cccc(-n3cncn3)c2)n1`, the “% Inhibition” value is -4% and the Z score was found to be 0.57.

Turning to `NC(=O)[C@H](CC1CCCCC1)NC(=O)[C@@H]1CN(C(=O)c2cccnc2)CCN1C(=O)C1CCCCC1`, the “% Inhibition” value is on record as 6% and the Z score is listed as -0.75.

As to `CCN1C(=O)C[C@H](C(=O)NCc2cccc(C(C)=O)c2)[C@H]1c1nccn1CC`, the “% Inhibition” value stood at 4% and the Z score was -0.59.

On to `COc1ccc([C@H](CNS(=O)(=O)c2ccc(F)cc2)N2CCCCC2)cc1`, for which the “% Inhibition” value is -16% and the Z score was 2.36.

`Cc1cccc(-c2nc3ccc(C(=O)NCc4ccc5c(c4)OCO5)cc3nc2-c2cccc(C)c2)c1`: the “% Inhibition” value came out at 9% and the Z score is reported as -1.14.

Take `Cc1ccc(C(=O)Nc2sc3c(c2C(N)=O)CCCCCCCCCC3)cc1`: the “% Inhibition” value is recorded as 4% and the Z score is -0.53.

Consider `Cc1ccc(CN2C[C@]34C=C[C@H](O3)C(C(=O)NCc3ccc5c(c3)OCO5)[C@H]4C2=O)cc1` (some centres undefined), for which the “% Inhibition” value was -9% and the Z score was found to be 1.36.

On to `O=C(Nc1ccc(OCc2ccccc2)cc1)C1CCN(S(=O)(=O)Cc2ccc(Cl)cc2)CC1`, for which the “% Inhibition” value was -7% and the Z score was 1.4.

As to `CC[C@H](C)N1CCC(O)(c2ccc3oc(C(=O)N(C)Cc4ccc5ncccc5c4)cc3c2)CC1`, the “% Inhibition” value is -9% and the Z score is reported as 1.13.

Consider `Cc1c(C(=O)NC2CC(C(=O)O)c3ccccc32)ccn1C` (centres undefined), for which the “% Inhibition” value is on record as -3% and the Z score is given as 0.57.

Turning to `COC[C@H](NC(=O)Nc1cnns1)c1ccco1`, the “% Inhibition” value is recorded as 10% and the Z score is -1.58.

Regarding `C[C@H](NS(=O)(=O)C1CC1)c1ccc(F)cc1F`, the “% Inhibition” value was 3% and the Z score is given as -0.3.

For `N#Cc1ccc(NC(=O)N2CCC3(CC2)C(=O)N(CC(=O)NC[C@H]2CCCO2)CN3c2ccccc2)cc1`, the “% Inhibition” value was -13% and the Z score is recorded as 1.15.

On to `COc1ccc(F)cc1S(=O)(=O)N1CCN(c2nccs2)C(=O)C1`, for which the “% Inhibition” value is listed as 12% and the Z score is -1.53.

`CN(C)CCN(C)C(=O)C(=O)Nc1ccc(N(C)C)c(Cl)c1`: the “% Inhibition” value is recorded as -3% and the Z score was 0.37.

Consider `CCc1ncnc(N2CC[C@H](c3ncccn3)C2)c1F`, for which the “% Inhibition” value was -6% and the Z score turned out to be 0.7.

On to `CC[C@@H](C(=O)NCc1ccc(C)cc1)n1c(=O)n(-c2cccc(C(F)(F)F)c2)c(=O)c2sccc21`, for which the “% Inhibition” value was 5% and the Z score is -0.51.

In the case of `Cc1cc(CN(C)C(=O)c2cc(=O)[nH]c3ccc(F)cc23)no1`, the “% Inhibition” value is -8% and the Z score stood at 0.8.

In the case of `O=C(O)[C@H]1CN(c2nccc(C(F)(F)F)n2)CC12CCC2`, the “% Inhibition” value was -5% and the Z score was 0.62.

Turning to `Cc1nc(C2CCCCC2)sc1C(=O)N1CCC12COC2`, the “% Inhibition” value was 34% and the Z score is listed as -3.81.

On to `CC(NC(=O)OC(C)(C)C)C1CCCN(CCn2cccn2)C1` (centres undefined), for which the “% Inhibition” value was -12% and the Z score turned out to be 1.23.

On to `CCc1cc(NC(=O)[C@@H](C)COC)nc(C)n1`, for which the “% Inhibition” value came to 5% and the Z score is -0.67.

Consider `CC(C)Cc1nnc(C[C@H]2CCN(S(=O)(=O)c3ccccc3F)C2)o1`, for which the “% Inhibition” value is recorded as -13% and the Z score was found to be 1.94.

Take `CCCc1nnc(N[C@@H](C)Cn2nc(C)cc2C)o1`: the “% Inhibition” value is 26% and the Z score is on record as -3.26.

Values taken from ChEMBL document CHEMBL4888484, “Replenishing the malaria drug discovery pipeline: Screening and hit evaluation of the MMV Hit Generation Library 1 (HGL1) against asexual blood stage Plasmodium falciparum ,using a nano luciferase reporter read-out” (2022).
